PubChem BioAssay (NCI)
The source holds several records for some structures; these can differ, active in one and inactive in another.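 In brief: 96-well plates, 48 h treatment, single concentration, percent growth endpoint.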 The source holds more than one record for some entries. This is not the full list of results. There may be further records. How the source made its calls: active means growth percent below 10; inactive means the rest. This drug was run again and again over the years, at the concentration stated with the values; each value is one run. Additions like (4×) stand for listed records that agree.

Experiments:
[1] = test system: HT29 colon; assay: NCI-60 one-dose screen, 48 h (100 = growth as untreated, 0 = no growth, -100 = all killed); settings: 2.5 mM
[2] = test system: SNB-75 CNS; assay: as above; settings: 2.5 mM

O=c1[nH]cc(F)c(=O)[nH]1
growth ([1]; runs of 1995): inactive: 23.9, 15.3, 15.8, 14.9, 15.4, 12.7, 13.5, 17.9, 14.4, 23.6, 13.9, 18.4, 22.7, 19.6, 13.8 (2×), 18.5, 16.8, 15.1, 12.9, 92.2, 10.3, 16.9, 10.6, 15.9, 16% and active: 6.03, 3.56, 7.46, -6.98, 2.68, 5.02, 5.06, 6.43, 0.173, 9.68, -3.72, 5.93, 6.05% | growth ([1]; runs of 1996): active: 9.43, -17.5, 9.28, 8.79 (2×), 5.57, 6.85, 6.08, 7.47, 9.96, -3.82, 4.53, 2.84, 5.84, -23.5% and inactive: 11.8, 17.1, 10.3, 12.3, 13.3, 17.8, 10.4 (2×), 10.1, 11.1, 16.6, 18.7 (2×), 15.8, 15.7, 11.2, 10.5, 10.8, 13.8, 17, 13, 12.5, 14.6, 14.9, 13.9, 33.6, 24.1, 16, 15.9, 22.6, 13.7, 19.5, 29, 23, 20.2, 25.7, 24.4, 21.1% | growth ([1]; runs of 1997): inactive: 20.6, 18.6, 18.7, 33.5, 10.1, 23.4, 19.9 (2×), 12.4 (2×), 14.9, 14.7, 16.8, 13.2, 13.8 (2×), 11.4, 14.4, 22.1, 19.1, 22.7, 20.3, 24.3, 17.7, 17.8, 18.8, 18.4, 112, 14.1, 24.1, 16.2, 25, 20.5, 11% and active: 5.12, 9.7, -8.64, 9.69, -1.01, 4.09, 8.39, 4.12% | growth ([1]; runs of 1998): inactive: 22.9, 18.3, 25.9, 25.1, 22.1, 23.7, 22 (2×), 13, 23.6, 35.8, 11.3 (2×), 16.9, 19.7, 13.5% and active: 7.2, 6.61, -25.5, 7.88, 2.43, 5.04, -2.47, -9.73% | growth ([1]; runs of 1999): inactive: 23.8, 18.5, 11.9, 10.6, 10.3, 13.7% and active: -75.1, 1.92, 1.22, -33.6, 0.178, 1.88, -20.8, -33.2, 0.176, -100, 1.58% | growth ([1]; runs of 2000): active: -37.9, 0.279, 0.869, -24.3% | growth ([2]; runs of 1991): inactive: 56.7, 38.1, 42.4, 24.4, 10.2, 41.2, 32.9, 32.8, 34.3, 62, 30.7, 26.6, 33.9% and active: -19.2, -10.7, -1.11, -9.3, -1.03% | growth ([2]; runs of 1992): active: -2.39, -0.862, -5.23, -17.6, -5.07, 7.52, -6.3, -1.29, -3.1, -11, 7.86, -5.42, -7.34, 2.57, -22.6, -1.02, -8.86, -10.9, 5.72, 3.7, 9.8, 6.13, -5.65, -5.48, -19.9, -5.49, 7.28, 1.9% and inactive: 26.9, 35.5, 22.5, 45.8, 16.4, 22.8, 23.3, 85, 16.1, 19.2, 25.6, 63.7, 11.4, 24.8, 36.5, 50.6, 33, 48.1, 39.6, 37.4, 59.2, 45.1, 17.4, 11.2, 19 (2×), 14.8, 10.6, 42.5, 26.6, 42.2, 68.2, 23.8, 59.5, 36, 47.4, 22.4 (2×), 40.7, 19.6, 34.8, 27.4 (2×), 36.7, 39, 29.7 (2×), 25, 29.9, 33.6, 81.2, 33.5, 32.1, 20.6, 32.8, 20.1, 21.6, 97.2, 54.4, 26.5, 13.5, 27.6, 26.3, 15.1, 42.1, 37, 13.6, 10.5, 21.8, 66.1, 15.5, 57.2, 18.4, 141, 67.1, 15.2, 38.5, 22.3, 42, 15.7, 20.4, 63.3, 32.9% | growth ([2]; runs of 1993): inactive: 57, 17.4, 41.4 (2×), 14.4, 42.2, 22.6, 21.7, 15.4, 35.6, 35.4, 29, 37.4, 17.2, 23.4, 27.3, 38.7 (2×), 34.6, 25.7, 38.1, 29.6 (2×), 11.4, 23.8, 27.9, 82.8, 27.8, 57.8, 15.2, 88.7, 15.7, 31.6, 34.1% and active: -3.21, -0.603, 0.997, 8.2, 4.88, -6.49, -15.6% | growth ([2]; runs of 1994): inactive: 22.7, 19.2, 34.1, 29.9, 42, 36, 31.1, 20.4, 46.1, 15.9, 32, 65.7, 53.5, 54.6, 26, 35.5, 18.4, 51.8, 13.9, 33.1, 33.5, 40.7, 20.9% and active: -19.7, -1.99, -3.6, -0.163% | growth ([2]; runs of 1995): inactive: 39.9, 37.5, 66.6, 40.7, 22.1, 21, 48.5, 13.4, 17, 45.9, 27.5, 12, 32.7, 30.5, 34.3, 25.4 (2×), 34.4, 54, 21.8, 35.2, 51.7, 53.6, 41.9, 44, 72.3, 38.4, 16.9, 63.5, 50.8% and active: 0.899, -14.7, -6.11, -5.69, -15.1, -6.66% | growth ([2]; runs of 1996): inactive: 24.6, 41.9, 21.8, 21.3, 27.9, 85.6, 27.7 (2×), 28.9, 35.6, 48.2, 44.5, 43.5, 27.6, 29.5, 20.4, 34.4, 43.8, 19.8, 23.9, 75.3, 35.4, 68.3, 28.1, 26.1, 43.6, 23.1, 46.6, 39.6, 30, 37.5, 19.5, 22.8, 24.5, 40, 46.4, 34.5, 32, 70.4, 81.1, 64.4, 17.4, 37.6, 26.8, 67.4, 33.8, 45.3, 64.9, 33.3, 36.6% and active: -9.83, -4.29, -2.25, -19.3, 0.297% | growth ([2]; runs of 1997): inactive: 46.5, 63.6, 16.6, 65 (2×), 42.3, 19.5, 65.8, 31.7, 30.6, 23.4, 37.4, 67.5, 14.6, 11.1, 42.5, 34.8, 14.3, 16.1, 21.2, 13.9, 36.1, 41.7, 31, 45, 24.7, 36.6, 31.1% and active: -0.433, 1.92, 6.39, 4.42, 6.25, 4.34, -8.19% | growth ([2]; runs of 1998): active: -8.79, -19.7, 6.28, -2.91% and inactive: 38.2, 43.4, 23.3, 54, 23.6, 18.3, 35.1, 30, 46.7, 27, 25.6, 40.2, 28.1, 14.9, 38.4% | growth ([2]; runs of 1999): active: -17.1, -0.578, -13.8, 5.31, 3.29, 1.54, -14.8, -25.5, 4.68% and inactive: 33.8, 54.5, 27.8, 26.2%
